In publication PMC10933458:
These are yes or no findings as the source states them, for the method shown. For part of these data: In cells and extracts the contact can be indirect. Some binding calls cover weakened binding; strength is not graded here. For part of these data: Sequences can lack the tags named with a protein.

Assays:
[1] = target: T1, full-length human TREM2 tagged with a 3xFLAG at the C-terminus (TREM2-3xFLAG) (human) (UniProt Q9NZC2); experiment: co-IP; HEK293 cells transfected with bicistronic plasmids TREM2-3xFLAG + Myc-BRI2 variants; TREM2-3xFLAG precipitated with M2; blot with anti-Myc and anti-human BRI2; three independent transfections
T1 sequence: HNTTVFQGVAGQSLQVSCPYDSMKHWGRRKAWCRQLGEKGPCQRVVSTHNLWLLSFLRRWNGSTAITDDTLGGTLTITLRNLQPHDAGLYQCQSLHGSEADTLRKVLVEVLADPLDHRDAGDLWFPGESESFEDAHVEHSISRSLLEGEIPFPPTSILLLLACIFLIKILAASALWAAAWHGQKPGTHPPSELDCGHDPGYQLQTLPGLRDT

[2] = target: recombinant BRI2-BRICHOS (human) (UniProt Q9Y287); experiment: non-reducing SDS-PAGE and Western blot; eluates of the cell-free pull-down separated under reducing and non-reducing conditions; blot with M2; both purified
[3] = target: recombinant BRI2-ECD (human) (UniProt Q9Y287); experiment: as above

| binding [1] | Substance | also measured |
| --- | --- | --- |
| binds | Myc-BRI2_(1-131) (from UniProt Q9Y287 1-131) (domain or fragment) |  |
| binds | full-length human BRI2 tagged with a Myc epitope at the N-terminus (Myc-BRI2) (from UniProt Q9Y287 1-266) |  |

More lines, now with the values behind:

| Substance | binding [1] | also measured |
| --- | --- | --- |
| Myc-BRI2_(1-80) (from UniProt Q9Y287 1-80) (domain or fragment) | no binding |  |
| Myc-BRI2δ_(80-131), which lacks amino acids 80-131 (from UniProt Q9Y287 1-266) | binds |  |
| recombinant BRI2-BRICHOS (from UniProt Q9Y287 137-231) (domain or fragment) |  | binding [2]: binds |
| recombinant BRI2-ECD (from UniProt Q9Y287 76-266) (domain or fragment) |  | binding [3]: binds |
